Assay results from article PMC7616460, “Skraban-Deardorff intellectual disability syndrome-associated mutations in WDR26 impair CTLH E3 complex assembly” (FEBS letters, 2024).
No constants are given. Whether binding was seen depends on the method and setting. In cells and extracts the contact can be indirect. Some binding calls cover weakened binding; strength is not graded here. Sequences can lack the tags named with a protein.

By UniProt entry, the sequences of proteins in these tests, tags left out. Where a name states a change or a piece, a line headed by the entry shows the natural chain unless it says otherwise. Chains listed by the source or under a name are the forms on record and can include a tag or linker. Residues count along the entry.
UniProt Q9H7D7: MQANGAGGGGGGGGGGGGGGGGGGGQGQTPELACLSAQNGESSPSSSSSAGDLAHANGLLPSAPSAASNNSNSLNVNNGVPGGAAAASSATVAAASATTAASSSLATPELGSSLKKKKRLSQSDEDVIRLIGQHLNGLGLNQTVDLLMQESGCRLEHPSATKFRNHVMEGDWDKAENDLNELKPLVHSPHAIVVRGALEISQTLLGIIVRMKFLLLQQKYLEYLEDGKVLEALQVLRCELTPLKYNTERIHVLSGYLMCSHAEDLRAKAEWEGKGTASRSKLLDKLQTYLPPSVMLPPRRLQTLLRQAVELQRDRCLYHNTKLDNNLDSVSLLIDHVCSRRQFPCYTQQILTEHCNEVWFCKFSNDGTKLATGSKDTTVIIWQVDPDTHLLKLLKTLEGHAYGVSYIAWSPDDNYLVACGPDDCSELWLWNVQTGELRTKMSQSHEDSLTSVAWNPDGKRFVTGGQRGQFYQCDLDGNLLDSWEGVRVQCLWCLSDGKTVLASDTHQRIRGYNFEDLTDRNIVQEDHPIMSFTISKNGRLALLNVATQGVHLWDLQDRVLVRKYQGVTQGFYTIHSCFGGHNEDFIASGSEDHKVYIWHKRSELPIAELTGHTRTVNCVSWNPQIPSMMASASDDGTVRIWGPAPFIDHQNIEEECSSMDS
HA-tagged WDR26 variant Ind23 (Trp359*): residues 1-358 of Q9H7D7
HA-tagged WDR26 variant Ind19 (Gln348*): residues 1-347 of Q9H7D7
HA-tagged WDR26 variant Ind21 (Arg510Gln) (Q9H7D7, form named): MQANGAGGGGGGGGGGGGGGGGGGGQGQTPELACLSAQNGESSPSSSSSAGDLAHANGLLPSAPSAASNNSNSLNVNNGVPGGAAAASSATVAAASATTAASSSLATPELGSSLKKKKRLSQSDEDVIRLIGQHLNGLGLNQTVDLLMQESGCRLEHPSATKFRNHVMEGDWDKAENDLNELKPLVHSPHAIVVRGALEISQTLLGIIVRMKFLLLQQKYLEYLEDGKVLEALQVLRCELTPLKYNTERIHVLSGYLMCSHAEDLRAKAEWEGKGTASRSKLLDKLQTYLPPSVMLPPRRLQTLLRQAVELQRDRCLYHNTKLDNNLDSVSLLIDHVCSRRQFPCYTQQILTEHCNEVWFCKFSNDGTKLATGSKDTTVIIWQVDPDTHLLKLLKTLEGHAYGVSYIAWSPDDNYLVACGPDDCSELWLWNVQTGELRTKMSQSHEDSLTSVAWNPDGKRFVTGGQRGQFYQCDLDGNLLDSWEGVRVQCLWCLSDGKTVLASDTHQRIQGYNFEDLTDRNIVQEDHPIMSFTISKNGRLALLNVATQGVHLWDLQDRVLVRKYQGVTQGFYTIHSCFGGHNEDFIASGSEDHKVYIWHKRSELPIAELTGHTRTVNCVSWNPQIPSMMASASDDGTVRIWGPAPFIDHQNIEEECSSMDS
HA-tagged WDR26 variant Ind6 (Asp284Asn) (Q9H7D7, form named): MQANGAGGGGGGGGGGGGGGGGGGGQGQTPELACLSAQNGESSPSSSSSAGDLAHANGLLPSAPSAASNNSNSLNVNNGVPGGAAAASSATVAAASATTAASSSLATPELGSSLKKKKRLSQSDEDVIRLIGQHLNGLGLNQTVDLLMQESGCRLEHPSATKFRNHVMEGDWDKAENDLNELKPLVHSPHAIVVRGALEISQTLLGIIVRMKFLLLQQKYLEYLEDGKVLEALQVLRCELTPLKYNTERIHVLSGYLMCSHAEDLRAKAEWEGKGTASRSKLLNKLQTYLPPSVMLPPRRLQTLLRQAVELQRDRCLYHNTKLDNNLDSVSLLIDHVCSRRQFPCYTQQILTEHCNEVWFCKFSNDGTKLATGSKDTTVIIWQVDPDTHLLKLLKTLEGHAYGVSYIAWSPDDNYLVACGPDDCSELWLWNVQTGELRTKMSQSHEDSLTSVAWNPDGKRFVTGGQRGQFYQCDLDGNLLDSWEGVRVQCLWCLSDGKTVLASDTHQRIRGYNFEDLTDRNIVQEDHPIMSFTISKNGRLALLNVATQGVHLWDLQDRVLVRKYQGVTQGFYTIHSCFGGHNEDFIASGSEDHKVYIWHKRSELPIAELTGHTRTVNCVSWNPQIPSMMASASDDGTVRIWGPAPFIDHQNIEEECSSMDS
HA-tagged WDR26 variant Ind9 (Ser254Arg) (Q9H7D7, form named): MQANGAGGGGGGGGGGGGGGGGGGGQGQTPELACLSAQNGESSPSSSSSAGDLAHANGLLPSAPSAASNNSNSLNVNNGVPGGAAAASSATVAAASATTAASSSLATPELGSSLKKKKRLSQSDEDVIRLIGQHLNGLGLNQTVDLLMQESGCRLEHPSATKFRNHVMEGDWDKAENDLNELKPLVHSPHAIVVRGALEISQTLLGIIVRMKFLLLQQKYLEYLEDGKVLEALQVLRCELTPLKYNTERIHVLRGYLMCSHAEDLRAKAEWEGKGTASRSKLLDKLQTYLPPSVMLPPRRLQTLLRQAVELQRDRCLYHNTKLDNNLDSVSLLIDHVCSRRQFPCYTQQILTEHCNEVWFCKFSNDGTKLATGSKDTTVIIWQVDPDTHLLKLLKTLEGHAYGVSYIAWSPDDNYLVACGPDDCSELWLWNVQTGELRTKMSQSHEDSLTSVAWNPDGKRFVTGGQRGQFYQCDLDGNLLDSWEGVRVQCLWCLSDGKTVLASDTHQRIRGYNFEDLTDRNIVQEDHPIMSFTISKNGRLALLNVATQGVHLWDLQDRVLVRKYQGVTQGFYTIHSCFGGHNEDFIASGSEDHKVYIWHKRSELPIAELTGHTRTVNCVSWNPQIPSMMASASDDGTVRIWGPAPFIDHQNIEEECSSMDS

Assays:
Test in all cases: co-IP; HEK293 Flp-In T-Rex WDR26-/- cells transiently co-transfected with HA-WDR26 variants and 3xFlag-HBP1; anti-HA agarose beads 2 h 4 °C; immunoblot
[1] = target: HA-tagged WDR26 variant Ind21 (Arg510Gln) (human) (UniProt Q9H7D7)
[2] = target: HA-tagged WDR26 (wildtype, isoform 1) (human) (UniProt Q9H7D7)
[3] = target: HA-tagged WDR26 variant Ind19 (Gln348*) (human) (UniProt Q9H7D7)
[4] = target: HA-tagged WDR26 variant Ind23 (Trp359*) (human) (UniProt Q9H7D7)
[5] = target: HA-tagged WDR26 variant Ind6 (Asp284Asn) (human) (UniProt Q9H7D7)
[6] = target: HA-tagged WDR26 variant Ind9 (Ser254Arg) (human) (UniProt Q9H7D7)

binding [1]: no binding
binding [2]: binds
binding [3]: no binding
binding [4]: no binding
binding [5]: binds
binding [6]: no binding
B1: 3xFlag-tagged HMG-Box Transcription Factor 1 (protein, UniProt O60381 1-514)
chain: MVWEVKTNQMPNAVQKLLLVMDKRASGMNDSLELLQCNENLPSSPGYNSCDEHMELDDLPELQAVQSDPTQSGMYQLSSDVSHQEYPRSSWNQNTSDIPETTYRENEVDWLTELANIATSPQSPLMQCSFYNRSSPVHIIATSKSLHSYARPPPVSSSSKSEPAFPHHHWKEETPVRHERANSESESGIFCMSSLSDDDDLGWCNSWPSTVWHCFLKGTRLCFHKGSNKEWQDVEDFARAEGCDNEEDLQMGIHKGYGSDGLKLLSHEESVSFGESVLKLTFDPGTVEDGLLTVECKLDHPFYVKNKGWSSFYPSLTVVQHGIPCCEVHIGDVCLPPGHPDAINFDDSGVFDTFKSYDFTPMDSSAVYVLSSMARQRRASLSCGGPGGQDFARSGFSKNCGSPGSSQLSSNSLYAKAVKNHSSGTVSATSPNKCKRPMNAFMLFAKKYRVEYTQMYPGKDNRAISVILGDRWKKMKNEERRMYTLEAKALAEEQKRLNPDCWKRKRTNSGSQQH
